According to PubChem BioAssay AID686978 (National Center for Advancing Translational Sciences (NCATS), 2013):
“And” between values parts separate entries of the source, which are not always exact repeats. Equal values may be shown once. The campaign covered roughly 420,000 compounds. About 64,000 (15%) were called active. The inconclusive results got no clear call from the source; some entries with a clear call stand among them for comparison. The call rests on the fitted dose curve; in most records, active means well fitted inhibition curve with a large enough effect; inconclusive means small, poorly fitted or top-dose-only effect; inactive means flat fitted curve, though single readings scatter. A potency beside an inconclusive call is a rough fit, not a confirmed value.

Assay: qHTS for Inhibitors of human tyrosyl-DNA phosphodiesterase 1 (TDP1): qHTS in cells in absence of CPT; further: nearly all actives have a fitted effect of over 55% in size
Conditions: DT40 Tdp1-/- hTDP1 cells, no CPT, ATP luminescence, 48 h; series mostly up to 46.2 µM
In short: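 Chicken DT40 Tdp1-/- cells complemented with human TDP1, screened without camptothecin (DMSO vehicle only), 400 cells/well. Compounds pin-transferred, cells incubated at 37 °C for at least 48 hr. Growth read as ATP-dependent luminescence (CellTiter-Glo, 30 min at RT).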
Potency means the concentration at half of the fitted maximal effect; tags describe the fitted curve by direction and shape.

SMILES	Potency
CCC(C)[C@H]1COCCS(=O)(=O)N1Cc1ccc(Cl)cc1Cl (stereo partly drawn)	inconclusive: 35.5 µM [inhibitor, single point]
COc1ccc(N2CSC3=C(C#N)C(c4cccc(OC)c4OC)CC(=O)N3C2)cc1 (stereo not drawn)	inconclusive: 29.1 µM [inhibitor, single point]
COCCOC(=O)c1c(C)n(C)c2ccc(OC(=O)c3ccccc3F)cc12	inconclusive: 29.1 µM [inhibitor, single point]
COc1cc([N+](=O)[O-])ccc1NC(=S)Nc1cc(C(=O)OC(C)C)cc(C(=O)OC(C)C)c1	inconclusive: 29.1 µM [inhibitor, single point]
Cc1cccc(CN2CCN(CC(=O)NCCCN3CCN(c4ccc(F)cc4)CC3)C2=O)c1	inconclusive: 31.6 µM [inhibitor, single point]
CO[C@H]1CN(C)C(=O)c2ccc(NC(=O)NC(C)C)cc2OC[C@H](C)NC[C@H]1C	inactive
CCCc1cc(=O)[nH]c(SCC(=O)Nc2ccc(OC(F)F)cc2)n1	inactive
COCCn1c(COc2ccc(C)cc2)nc2ccccc21	inconclusive: 14.6 µM [inhibitor, partial curve, poor fit]
CCc1ccc2occ(CC(=O)N(Cc3ccccc3)C3CCS(=O)(=O)C3)c2c1 (stereo not drawn)	inconclusive: 29.1 µM [inhibitor, single point]
COc1ccc(-c2nc(=S)[nH][nH]2)cc1OC	inactive
COc1cc2c(cc1OC)CN(c1ccc(F)cc1[N+](=O)[O-])CC2	inconclusive: 29.1 µM [inhibitor, single point]
O=C(COC(=O)CNC(=O)C1CCCCC1)Nc1ccc(Cl)cc1F	inactive
C[C@H](CO)N1C[C@H](C)[C@@H](CN(C)Cc2ccccc2)Oc2c(NS(=O)(=O)c3cn(C)cn3)cccc2C1=O	inconclusive: 20.6 µM [inhibitor, single point]
COCCNC(=O)CSc1nc2ccc(N3CCOCC3)cc2c(=O)n1Cc1ccc(OC)cc1	inconclusive: 14.6 µM [inhibitor, partial curve]
CCN(CC)CCCNC(=O)c1cn(CC)c2ccc(S(=O)(=O)N3CCC(C)CC3)cc2c1=O	inconclusive: 29.1 µM [inhibitor, single point]
COc1cc(C2NC(=O)NC(C)=C2C(=O)OCc2ccc(C)cc2)cc(OC)c1O (stereo not drawn)	inconclusive: 10 µM [inhibitor, partial curve]
CC(C)(C)C1CCSC2=NCCC[C@]2(c2ccccc2)C1 (stereo partly drawn)	active: 18.4 µM
COc1cc(/C=N/NC(=O)CSCc2ccc([N+](=O)[O-])cc2)cc(OC)c1OC	inconclusive: 25.9 µM [inhibitor, single point]
Cc1ccc(CNC(=O)CCS(=O)(=O)c2ccc(Br)s2)cc1	inactive
O=S(=O)(c1ccc(NC(=S)NN=Cc2ccccc2O)cc1)N1CCCCC1	active: 5.8 µM
Cc1c(Cc2ccccc2)c(=O)oc2c(CN(C)C)c(O)c(Cl)cc12	active: 16.4 µM
O=C(NCCc1ccc(C(F)(F)F)cc1)C1CCC(=O)N(CCc2cccc(F)c2)C1 (stereo not drawn)	inconclusive: 29.1 µM [inhibitor, single point]

SMILES	Potency
COc1ccc(C(=O)NCc2ccc3c(c2)OCO3)cc1S(=O)(=O)NCc1ccc(Cl)cc1	inconclusive: 29.1 µM [inhibitor, single point]
CCCCOc1cccc(C(=O)NC(=S)Nc2cccc(C(F)(F)F)c2)c1	active: 29.1 µM
CC1CCC(N2CC(=O)N(Cc3ccc4c(c3)OCO4)C(c3ccc(F)cc3)C2=O)CC1 (stereo not drawn)	inconclusive: 29.1 µM [inhibitor, single point]
Cc1onc(-c2ccccc2)c1C(=O)N[C@@H]1C(=O)N2C1SC(C)(C)[C@@H]2C(=O)O (stereo partly drawn)	inactive
CCc1nnc(NC(=O)CC(C)c2ccccc2)s1 (stereo not drawn)	inactive
Cc1cccc(CNC(=O)c2ccc3c(c2)N(C)CCS3)c1	inconclusive: 29.1 µM [inhibitor, single point]
CN1CCN(C(=S)c2ccc(Br)cc2)CC1	inconclusive: 20.6 µM [inhibitor, single point]
CCn1c(SCC(=O)N2c3ccccc3Sc3ccccc32)nc2c1c(=O)n(C)c(=O)n2C	inconclusive: 25.9 µM [inhibitor, single point]
Cc1ccc(C(=O)Nc2cccc(-c3ccc(N4CCOCC4)nn3)c2)cc1	inconclusive: 29.1 µM [inhibitor, single point]
O=C(C[n+]1cc(Br)cc2ccccc21)c1ccc(F)cc1	inconclusive: 35.5 µM [inhibitor, single point] and inconclusive: 29.1 µM [inhibitor, single point]
Fc1ccccc1COc1cccc2cccnc12	inconclusive: 29.1 µM [inhibitor, single point]
O=C(O)c1oc2ccccc2c1-n1cccc1	inconclusive: 18.4 µM [inhibitor, partial curve]
COc1ccc(CCNC(=O)c2sc3nc4n(c(=O)c3c2C)CCC4)cc1	inconclusive: 18.4 µM [inhibitor, single point]
COC(=O)c1ccc2nc(-c3ccco3)c(Cc3ccccc3C(F)(F)F)n2c1	inconclusive: 16.4 µM [inhibitor, single point]
Cc1ccc(-c2nc3c4ccccc4ccn3c2CN2CCCCC2)cc1	active: 23.1 µM
CCCc1nc(SCc2ccccn2)c2c(=O)n(C)c(=O)n(C)c2n1	inconclusive: 20.6 µM [inhibitor, single point]
O=C(c1ccc(CS(=O)c2cccc(Cl)c2)o1)N1CCN(c2ccccn2)CC1 (stereo not drawn)	active: 9.2 µM
O=C(COc1nsnc1N1CCOCC1)Nc1ccc([N+](=O)[O-])cc1	active: 23.1 µM
O=C(Nc1cccc([N+](=O)[O-])c1)c1ccc2c(c1)OCCO2	inconclusive: 29.1 µM [inhibitor, single point]
Cc1ccccc1NC(=O)Nc1nc(C2CCC(=O)N2)cs1 (stereo not drawn)	inactive
CC(C)=NOc1cc(NC(=O)CCl)cc([N+](=O)[O-])c1	active: 4.11 µM
